# Test results from PubChem BioAssay AID1259400 (National Center for Advancing Translational Sciences (NCATS), 2018).
# Among all 350,000 compounds or so, about 2,100 (0.6%) were called active. The inconclusive results got no clear call from the source; some entries with a clear call stand among them for comparison.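 The calls were made as follows: active = activity change of -60% or lower, but not beyond a set lower limit; inconclusive = change between -60% and -40%, or beyond the set limit; inactive = change above -40%.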
# Molecular target: Relaxin receptor 1 (Homo sapiens) (UniProt Q9HBX9)
# UniProt Q9HBX9, sequence (Q9HBX9 whole entry, looked up): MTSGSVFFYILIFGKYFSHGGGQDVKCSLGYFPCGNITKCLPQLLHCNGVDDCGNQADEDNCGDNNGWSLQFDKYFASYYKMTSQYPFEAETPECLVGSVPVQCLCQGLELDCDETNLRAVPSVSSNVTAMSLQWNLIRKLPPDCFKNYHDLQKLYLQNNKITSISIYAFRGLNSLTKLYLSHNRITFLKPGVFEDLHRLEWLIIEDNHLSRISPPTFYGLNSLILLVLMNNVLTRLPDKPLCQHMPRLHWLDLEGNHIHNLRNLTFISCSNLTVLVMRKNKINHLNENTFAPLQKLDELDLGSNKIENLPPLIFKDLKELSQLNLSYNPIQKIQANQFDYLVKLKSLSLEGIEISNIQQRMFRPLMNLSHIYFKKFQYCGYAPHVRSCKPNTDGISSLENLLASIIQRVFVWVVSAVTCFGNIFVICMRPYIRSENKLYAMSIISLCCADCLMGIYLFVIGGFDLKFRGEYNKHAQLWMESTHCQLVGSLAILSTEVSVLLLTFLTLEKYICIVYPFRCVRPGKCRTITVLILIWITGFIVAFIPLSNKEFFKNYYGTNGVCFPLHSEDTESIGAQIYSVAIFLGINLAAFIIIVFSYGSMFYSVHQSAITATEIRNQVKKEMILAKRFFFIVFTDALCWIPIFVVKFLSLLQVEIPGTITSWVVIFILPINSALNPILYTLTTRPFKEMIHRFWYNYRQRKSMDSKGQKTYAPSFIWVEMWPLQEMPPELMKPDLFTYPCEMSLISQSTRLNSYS
# Assay: qHTS Assay for Antagonists of the Relaxin Receptor RXFP1
# Settings: HEK293-RXFP1, relaxin-stimulated cAMP HTRF, 30 min; at 57.5 µM; active compounds read low
# Text: The relaxin hormone is involved in the variety of biological functions in normal tissues and diseases. The role of relaxin is well-established in female reproduction and parturition, mammary gland and endometrial development, maintenance of myometrial quiescence during pregnancy. Relaxin signaling through its G protein-coupled receptor (GPCR) RXFP1 results in ECM remodeling through regulation of collagen deposition, cell invasiveness, proliferation and overall tissue homeostasis. […] Recombinant human relaxin (rhRlx) is currently being tested in clinical trials as a protective agent in congestive heart failure, in treating severe preeclampsia, and as an anti-fibrotic agent in various organs. […] Upon relaxin binding RXFP1 activation leads to the activation of adenylate cyclase (AC) via G?s. cAMP will activate PKA, which phosphorylates many signaling proteins. Thus, detection of cAMP increase is an easy and reliable indication of relaxin receptor activation. To screen for antagonists of the relaxin receptor, a HEK293T cell line stably transfected with RXFP1 was used. RXFP1 activation by relaxin in presence of various concentrations of tested compounds was assayed by changes in cAMP levels as detected with a time-resolved fluorescence energy transfer (TR-FRET) cAMP detection kit.
# For the primary screening, we used HTRF(R) (Homogenous Time-Resolved Fluorescence) cAMP HiRange assay (Cisbio Bioassays, 62AM6PEJ). Presence of cAMP in the cell lysate disrupts binding between the Cryptate-labeled anti-cAMP and d2-labeled cAMP pair, leading to a decrease in TR-FRET signal. The libraries were screened at two doses (57microM and 11microM), followed by a confirmation of the hits at 7-point serial dilution in the range of final concentrations [57microM - 78nM]. Data were normalized to the controls for basal activity (buffer only) and 100% activity (5 nM porcine relaxin). The EC50 values were determined from concentration-response data modeled with the standard Hill equation. NCGC Assay Protocol Summary: HiHEK (Hawaiian HEK293 LGR7 stably transfected with human RXFP1) were grown in the following media: DMEM+10%FBS+Pen/Strep + Geneticin (1mg/ml). For the assay, the cells were seeded in DMEM+Pen/Strep (with no serum & selective antibiotics) at 2,100 cells/ 3microl/well with MultiDrop Combi dispenser (Thermo Scientific, Logan, UT) onto white tissue culture treated solid bottom1536-well plates (Greiner #789173-F) and allowed to attach/recover overnight at 37 degrees C, 5% CO2. Next, 23nl/well of compound solutions in DMSO were transferred into wells with a pintool (Kalypsis, San Diego, CA). […] EC80 (relaxin at 50pM final concentration) was dispensed to the rest of the plate except columns 1&2 which were used as a negative control (EC0, buffer only), 1microl/well also. The cells were stimulated by relaxin in the presence of compounds for 30 minutes at 37 degrees C, 5% CO2. The detection reagents were prepared individually by dilution in Lysis buffer (supplied with the assay kit) just prior to dispensing. 1microl/well of cAMP-d2 and 1microl/well anti-cAMP-Eu3+-Cryptate antibodies were added simultaneously with BioRAPTR FRDtrade mark Workstation (Beckman Coulter). The plates were incubated at ambient temperature for 30 minutes and, then, FRET signal was read on Envision plate reader (PerkinElmer, Waltham, MA), at wavelengths 340nm (excitation), 615nm & 665nm (emission of donor and acceptor channels respectively).
# % is scaled to controls: 0 for no effect and ±100 for the full control effect.
row,Structure (SMILES),"activity change, negative = inhibition"
1,COc1cccc(-c2nc(CS(=O)(=O)CC(=O)N3CCN(c4ccccc4)CC3)c(C)o2)c1,inconclusive: -44.2%
2,Cc1cccc(NS(=O)(=O)c2cc([N+](=O)[O-])ccc2C)n1,active: -62.3%
3,CCOC(=O)C1=C(N)Oc2cc(C)n(CCc3ccc(OC)c(OC)c3)c(=O)c2C1c1cccnc1 (stereo not given),inconclusive: -40.9%
4,Cc1ccc(-c2nc(CCNC(=O)c3ccc(C)c(C)c3)cs2)cc1,inconclusive: -53%
5,O=C(COC(=O)/C=C/c1cccc(F)c1)NNC(=O)c1ccccc1,inconclusive: -48.9%
6,O=C(c1ccc2c(c1)N(Cc1ccccc1)C(=O)c1ccccc1S2)N1CCCC1,inactive: -2.63%
7,CNC(=O)c1cc2cc(OC)ccc2n1CCN(C)C,inactive: -11.5%
8,COc1ccc(NC(=O)c2c(NCc3cccs3)sc3c2CCC(C)C3)c(OC)c1 (stereo not given),inconclusive: -50.2%
9,CCCc1nnc(NC(=O)CCC(=O)N2CCN(Cc3cc(Cl)ccc3OC)CC2)s1,inconclusive: -52%
10,CCOC(=O)N/N=C/c1c(C)nn(-c2cccc(C(F)(F)F)c2)c1Cl,inconclusive: -41.1%
11,CCc1nc2ccc(C(=O)N3CCN(c4cc(Cl)ccc4C)CC3)cc2nc1CC,active: -64.4%
12,CCCCc1cc2c(s1)CCCC/C2=N/O,inconclusive: -43.7%
13,COCC(C)NC(=S)NC(=O)c1cc(S(=O)(=O)N2CCOCC2)ccc1C (stereo not given),inconclusive: -42.2%
14,Cc1cccc(N(C)c2nc3ccc(C(=O)c4ccccc4)cc3n3c(C)nnc23)c1,inconclusive: -50.1%
15,O=C(Nc1cccc(S(=O)(=O)N2CCCCC2)c1)c1ccco1,inconclusive: -46%
16,Cc1ccc(-n2cccn2)c(CN2CCCC(C(=O)c3ccc4c(c3)OCO4)C2)c1 (stereo not given),inactive: -2.59%
17,CC(C)c1ccc(NC2CCCN(C(=O)CCN3Cc4ccccc4C3=O)C2)cc1 (stereo not given),inconclusive: -56.8%
18,O=C(COc1ccc(Cl)cc1Cl)NCC1(N2CCOCC2)CCCCC1,inactive: -15.8%
19,CC(=O)NC(C)CCc1ccccc1 (stereo not given),inconclusive: -58.4%
20,CCn1c(CCCOc2ccc(Cl)cc2Cl)n[nH]c1=S,inactive: -10.5%
21,C=C(C)c1ccc(C(C)(C)NC(=O)N(Cc2ccccc2)Cc2ccco2)cc1,inactive: 2.7%
22,Cc1cccc2cc(C#N)c(NCCNC(=O)COc3ccccc3)nc12,inactive: 0.133%
23,NS(=O)(=O)c1ccc(N2CCCC2=O)c([N+](=O)[O-])c1,inconclusive: -56.5%
24,CC1(C)CC(=O)CC2(C1)NCC(c1ccccc1)c1c2[nH]c2ccccc12 (stereo not given),inactive: 0.962%
25,COc1ccccc1N1CCN(C(=O)COc2ccc(Cl)cc2Br)CC1,inconclusive: -49.6%
26,Cc1nc(Sc2ccccc2)c(C#N)c(C)c1[N+](=O)[O-],inconclusive: -59%
27,Cc1ccc(Cl)cc1NS(=O)(=O)c1cc2c3c(c1)CC(=O)N3CCC2,inactive: -23%
28,Cc1cccc(-n2c(SCC(=O)c3ccccc3)nnc2-c2ccc(Br)cc2)c1,inconclusive: -41%

row,Structure (SMILES),"activity change, negative = inhibition"
1,CC1=C(C)CS(=O)N(S(=O)(=O)c2ccc(Cl)cc2)C1 (stereo not given),inconclusive: -49.8%
2,O=C(NCc1ccco1)/C(=C/c1ccc(C(F)(F)F)cc1)c1nc2ccccc2[nH]1,inactive: -7.92%
3,COc1ccccc1C(=O)Nc1ccnn1C1CCN(Cc2cc(C)c(C)cc2C)CC1,inconclusive: -47.4%
4,COc1ccccc1NS(=O)(=O)c1cccc(NC(=O)Nc2ccc(Cl)cc2)c1,inactive: -14.2%
5,Cc1ccc(NC(=O)c2oc3ccc(S(=O)(=O)N4CCC5(CC4)OCCO5)cc3c2C)c(C)c1,inconclusive: -54.6%
6,CCOc1cc(/C=C2\SC(=S)N(NS(=O)(=O)c3ccc(C)cc3)C2=O)ccc1O,inconclusive: -44.9%
7,CCC(C)Sc1cc(C(F)(F)F)c(C(=O)Nc2ccc(Cl)cc2)cn1 (stereo not given),inconclusive: -41.4%
8,CCOC(=O)c1cc(S(=O)(=O)N2CCN(c3ccc(F)cc3)CC2)[nH]n1,inactive: -19.5%
9,Cc1ccc(C(=O)N/C(=C/C=C/c2ccccc2)C(=O)NCc2ccco2)cc1,inconclusive: -42.7%
10,CC(=O)c1c(C)[nH]c(C(=O)CSc2nc3ccc(C)cc3[nH]2)c1C,inconclusive: -42.5%
11,CC1CCCC(NCC(O)COC(c2ccc(F)cc2)c2ccc(F)cc2)C1C (stereo not given),active: -69%
12,Nc1c(C(=O)c2ccccc2)sc2snc(SCC(=O)c3ccccc3)c12,inconclusive: -52.5%
13,O=C(OCc1ccccn1)C1CCN(C(=O)c2ccc(Cl)cc2)CC1,inconclusive: -52.7%
14,O=C(COC(=O)C1CCC1)Nc1cccc(Cl)c1,inconclusive: -45.2%
15,S=c1[nH]nc(-c2ccc3ccccc3n2)o1,inconclusive: -59.3%
16,COc1cccc2[nH]c(C(=O)NCc3ccc4c(c3)CCN4C(=O)c3ccc(F)cc3)cc12,active: -68.2%
17,CN(C)c1cc(NC(=O)CNC(C)(C)CC(C)(C)C)c2ccccc2n1,inconclusive: -48.8%
18,O=C(CSc1nc(=O)[nH]c2c1CCC2)NCc1ccc(F)cc1,inactive: -2.41%
19,CN(c1ccccc1)S(=O)(=O)c1ccc(NC(=O)c2ccc(F)cc2)cc1,inconclusive: -53.2%
20,COc1cccc(CN(C)C(=O)c2cccc(S(=O)(=O)N3CCN(c4ccc(F)cc4)CC3)c2)c1OC,inactive: 2.81%
21,Cc1onc(-c2ccc(Cl)cc2Cl)c1-c1csc(N/N=C/c2ccccc2Cl)n1,active: -69%
22,COc1cc2c3nnc(-c4ccccc4)c-3cn(Cc3ccc(F)cc3)c2cc1OC,inconclusive: -42.3%
23,Cc1cc(NC(=O)c2cccs2)ncc1NC(=O)C(C)C,inactive: -2.37%
24,CCOc1ccc(C(=O)OCC(=O)Nc2cc(C)on2)cc1OCC,inconclusive: -52.6%
25,CCn1c(O)c(N=NC(=O)CNC(=O)Cc2ccccc2)c2ccccc21,inconclusive: -52.1%
26,Cc1ccc(NCC(=O)c2ccc([N+](=O)[O-])cc2)cc1,inconclusive: -41.4%
27,COc1ccc(N(CC(O)Cn2c(C)nc3ccccc32)S(=O)(=O)c2ccc(C)cc2)cc1 (stereo not given),inactive: 4.68%
